# Some of the results follow.
# Legend:
# Assay in all cases: glycan array binding signal (z-score within array); higher = stronger binding
# Settings in all cases: glycan notation: IUPAC condensed, linker removed
# [1] = target: Gal(b1-3)GlcNAc(b1-3)Gal(b1-4)GlcNAc(b1-2)[Gal(b1-3)GlcNAc(b1-3)Gal(b1-4)GlcNAc(b1-6)]Man(a1-6)[Gal(b1-3)GlcNAc(b1-3)Gal(b1-4)GlcNAc(b1-2)Man(a1-3)]Man(b1-4)GlcNAc(b1-4)[Fuc(a1-6)]GlcNAc
# How it was run: (§1)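 Arrays were curated from the Consortium for Functional Glycomics database, 3228 in total, and kept only where the protein sequence was available. Binding is expressed as a within-array Z-score. This score was averaged across arrays of the same protein sequence at different concentrations or buffers and across linkers, and negative values can be read as non-binding.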
# [2] = target: Gal(b1-3)GlcNAc(b1-3)Gal(b1-4)GlcNAc(b1-3)Gal(b1-4)GlcNAc(b1-2)[Gal(b1-3)GlcNAc(b1-3)Gal(b1-4)GlcNAc(b1-3)Gal(b1-4)GlcNAc(b1-6)]Man(a1-6)[Gal(b1-3)GlcNAc(b1-3)Gal(b1-4)GlcNAc(b1-3)Gal(b1-4)GlcNAc(b1-2)Man(a1-3)]Man(b1-4)GlcNAc(b1-4)[Fuc(a1-6)]GlcNAc
# How it was run: as §1
# [3] = target: Gal(b1-3)GlcNAc(b1-3)Gal(b1-4)GlcNAc(b1-6)[Gal(b1-3)GlcNAc(b1-3)]Gal(b1-4)Glc
# How it was run: as §1
# [4] = target: Gal(b1-3)GlcNAc(b1-3)Gal(b1-4)[Fuc(a1-3)]GlcNAc
# How it was run: as §1
# [5] = target: Gal(b1-3)GlcNAc(b1-3)Gal(b1-4)[Fuc(a1-3)]GlcNAc(b1-6)[Gal(b1-3)GlcNAc(b1-3)]Gal(b1-4)Glc
# How it was run: as §1
# [6] = target: Gal(b1-3)GlcNAc(b1-3)GalNAc
# How it was run: as §1
# [7] = target: Gal(b1-3)GlcNAc(b1-6)Gal(b1-4)GlcNAc
# How it was run: as §1
# [8] = target: Gal(b1-3)GlcNAc(b1-6)GalNAc
# How it was run: as §1
# [9] = target: Gal(b1-3)GlcNAc(b1-6)[Gal(b1-3)]GalNAc
# How it was run: as §1
# [10] = target: Gal(b1-3)GlcNAc6S
# How it was run: as §1
# [11] = target: Gal(b1-3)[Fuc(a1-4)]GlcNAc
# How it was run: as §1
# [12] = target: Gal(b1-3)[Fuc(a1-4)]GlcNAc(b1-2)Man
# How it was run: as §1
# [13] = target: Gal(b1-3)[Fuc(a1-4)]GlcNAc(b1-2)Man(a1-3)[Gal(b1-3)[Fuc(a1-4)]GlcNAc(b1-2)Man(a1-6)]Man(b1-4)GlcNAc(b1-4)GlcNAc
# How it was run: as §1
# [14] = target: Gal(b1-3)[Fuc(a1-4)]GlcNAc(b1-2)Man(a1-3)[Gal(b1-3)[Fuc(a1-4)]GlcNAc(b1-2)Man(a1-6)]Man(b1-4)GlcNAc(b1-4)[Fuc(a1-6)]GlcNAc
# How it was run: as §1
# [15] = target: Gal(b1-3)[Fuc(a1-4)]GlcNAc(b1-3)Gal(b1-3)[Fuc(a1-4)]GlcNAc
# How it was run: as §1
# [16] = target: Gal(b1-3)[Fuc(a1-4)]GlcNAc(b1-3)Gal(b1-4)GlcNAc
# How it was run: as §1
# [17] = target: Gal(b1-3)[Fuc(a1-4)]GlcNAc(b1-3)Gal(b1-4)[Fuc(a1-3)]GlcNAc
# How it was run: as §1
# [18] = target: Gal(b1-3)[Fuc(a1-4)]GlcNAc(b1-6)GalNAc
# How it was run: as §1
# [19] = target: Gal(b1-3)[GlcNAc(b1-6)]GalNAc
# How it was run: as §1
# [20] = target: Gal(b1-3)[GlcNAc(b1-6)]GlcNAc
# How it was run: as §1
# [21] = target: Gal(b1-3)[Neu5Ac(a2-6)]GalNAc
# How it was run: as §1
# [22] = target: Gal(b1-3)[Neu5Ac(a2-6)]GlcNAc
# How it was run: as §1
# [23] = target: Gal(b1-3)[Neu5Ac(a2-6)]GlcNAc(a1-4)Gal(b1-4)Glc
# How it was run: as §1
# [24] = target: Gal(b1-3)[Neu5Ac(a2-6)]GlcNAc(b1-4)Gal(b1-4)Glc
# How it was run: as §1
# [25] = target: Gal(b1-3)[Neu5Ac(a2-6)]GlcNAc(b1-6)Gal(b1-4)Glc
# How it was run: as §1
# [26] = target: Gal(b1-3)[Neu5Ac(b2-6)]GalNAc
# How it was run: as §1
# [27] = target: Gal(b1-3)[Neu5Ac(b2-6)]GlcNAc
# How it was run: as §1
# [28] = target: Gal(b1-4)Gal
# How it was run: as §1
# [29] = target: Gal(b1-4)GalNAc(a1-3)[Fuc(a1-2)]Gal(b1-4)GlcNAc
# How it was run: as §1
# [30] = target: Gal(b1-4)GalNAc(b1-3)[Fuc(a1-2)]Gal(b1-4)GlcNAc
# How it was run: as §1
binder,measurement,setting,value
"Epa1-NP (Candida glabrata), Q6VBJ0 (protein) MILNPALFLNKCVCIYTTLILLLLTNGGYATSSNDISLASKDPTTFPLGCSPDITTPKKGLSMELYSYDFRKKGSYPCWDAAYLDPNYPRTGYKSHRLLAKVDGVTGNINFYYHATKGCTPQLGHLPASYNYPKPLTMTNFTMLLYGYFRPKVTGFHTFTISADDLLFVNFGAGNAFDCCRRDSSADHFGNYQAYAIWGSKTAKDELTVHLDAGVYYPIRLFYNNREYDGALSFTFKTESNENTVSDFSEYFFSLDDTEEGCPGLISYDSSCASVKTSKIIGIDYHTETPNENLVPITKTIYHLGIPCTGTTTTPLCGSGFYDPLANKCVTINTSSTSSVTKTTSHTTSKEVSFHSSISSQKTLIPKSIPSPYGPIKSQSIPTEMETSSEISSSEYAFSDVISTPSHSPYTKKHSSLNSSSYTSTVIHSLTSYSISQGIFSTSLSEQNITSKSSTDKFSTATSMSNNITQSSIIISQFSTNNENYTTTSMHTSSDKISTETLNNSISTTTSILFSNSSTILKNNTTIISSDKDTHYHPVNPTIVCSTNKTEIICASITQPSISNSNNHWSSSVLKFNSTTVRSTLPSSAGSNETSINVPFSSSTESNTSTSSTSTSNSKMVRSTLPSSAGSNETSISVPFSSSTESNTSTSSTSTSNSKMVRSTLPSSAGSNETSINVPFSSSTESNTSTSSTSTSNSKTVRSTPFSSAGIIMTSLSQRNNKSASSYASSNSKCYNTADSCRKVHSTPSYLLTSSYTSEGVDYDCSLVSTKLKINDTNCVNNKHTTKSCLKTSVTTTIPTLEIKTARKSSSNTIGLHSYPTSSPNKSISSAPIIGYISSFKTIKTASPSYQTSDLTTITTITSLNNPGSTAVENTHESNDKSRKTSSNDISSKHSVIKETKDAVESSNKSHQTNTLKCSSIIIASSSHNSYESLGGTTLTLTLSKVYSPQNNDTLPFLEISEVNPSRTVLPESSKMMQYLTSTEERNKTARNTIATNIVSISTFHFEGEGNAIRMGYTQLLLMLIGIIVMNIGT",glycan array binding signal (z-score),[1],0.228
same,glycan array binding signal (z-score),[2],0.38
same,glycan array binding signal (z-score),[3],0.647
same,glycan array binding signal (z-score),[4],-0.25
same,glycan array binding signal (z-score),[5],0.199
same,glycan array binding signal (z-score),[6],-0.236
same,glycan array binding signal (z-score),[7],1.06
same,glycan array binding signal (z-score),[8],-0.273
same,glycan array binding signal (z-score),[9],1.62
same,glycan array binding signal (z-score),[10],0.331
same,glycan array binding signal (z-score),[11],-0.272
same,glycan array binding signal (z-score),[12],-0.278
same,glycan array binding signal (z-score),[13],-0.294
same,glycan array binding signal (z-score),[14],-0.172
same,glycan array binding signal (z-score),[15],-0.284
same,glycan array binding signal (z-score),[16],0.25
same,glycan array binding signal (z-score),[17],-0.32
same,glycan array binding signal (z-score),[18],-0.274
same,glycan array binding signal (z-score),[19],2.05
same,glycan array binding signal (z-score),[20],1.72
same,glycan array binding signal (z-score),[21],5.06
same,glycan array binding signal (z-score),[22],2.02
same,glycan array binding signal (z-score),[23],1.84
same,glycan array binding signal (z-score),[24],-0.264
same,glycan array binding signal (z-score),[25],-0.25
same,glycan array binding signal (z-score),[26],0.372
same,glycan array binding signal (z-score),[27],0.26
same,glycan array binding signal (z-score),[28],-0.205
same,glycan array binding signal (z-score),[29],0.145
same,glycan array binding signal (z-score),[30],0.59

# Source: the supplement of paper PMC8728848
